Assay results published in the antibiotic and cytotoxicity screens of Wong et al. (2023).
This is one part of the list.

Test system: HSkMC (human skeletal muscle cells)
Assay: cytotoxicity call (relative viability < 0.9)
Conditions: 10 µM

Structure (SMILES) | cytotoxicity call
C[C@H](CO)N1C[C@H](C)[C@@H](CN(C)S(=O)(=O)c2ccccc2)Oc2c(NC(=O)C3CCOCC3)cccc2C1=O | inactive
O=C(CCCCCCC(=O)Nc1ccc([C@H]2O[C@@H](CSc3ccccn3)C[C@H](c3ccccc3)O2)cc1)NO | inactive
O=C(C[C@H]1C=C[C@H](NC(=O)CN2CCOCC2)[C@@H](CO)O1)NCCc1ccncc1 | inactive
CN1C(=O)c2cc(NC(=O)C3CCCC3)ccc2OC[C@@H]2O[C@H](CC(=O)NCCc3ccncc3)CC[C@H]21 | inactive
COc1ccc(S(=O)(=O)N(C)C[C@H]2Oc3ccc(NS(=O)(=O)c4ccccc4)cc3CC(=O)N([C@@H](C)CO)C[C@@H]2C)cc1 | inactive
C[C@@H]1CN([C@@H](C)CO)C(=O)c2cc(NC(=O)CCCCCC(=O)Nc3ccccc3N)ccc2O[C@@H]1CN(C)S(=O)(=O)c1cn(C)cn1 | inactive
C[C@@H]1CN([C@H](C)CO)C(=O)CCCn2nncc2CO[C@H]1CN(C)C(=O)Nc1ccccc1C(F)(F)F | inactive
